Common to all, as to test: cell-based or functional assay
The target in test [1] is T1, Human VEGF-A protein (human, UniProt P15692-4 27-191, limits assumed).
T1 sequence (looked up): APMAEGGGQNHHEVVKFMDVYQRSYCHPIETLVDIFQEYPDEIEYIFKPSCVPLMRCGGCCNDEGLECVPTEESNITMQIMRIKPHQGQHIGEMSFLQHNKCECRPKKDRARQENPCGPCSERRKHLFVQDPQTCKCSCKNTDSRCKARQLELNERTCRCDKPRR

In test [2] the target is T1, Human VEGF-A protein. The source holds these as a separate data set.
The target in test [3] is T1, Human VEGF-A protein. This is another data set of the same source.

Read-outs that look alike come from different tables or passages of the source.

B1: PR1145(R1D2-R2D3-linker-R2D2(C162V)-R2D3(S283T)-Fc) (Fc fusion)
chain: SDTGRPFVEMYSEIPEIIHMTEGRELVIPCRVTSPNITVTLKKFPLDTLIPDGKRIIWDSRKGFIISNATYKEIGLLTCEATVNGHLYKTNYLTHRQTNTIIDVVLSPSHGIELSVGEKLVLNCTARTELNVGIDFNWEYPSSKHQHKKLVNRDLKTQSGSEMKKFLSTLTIDGVTRSDQGLYTCAASSGLMTKKNSTFVRVHEKGGGGSSPFIASVSDQHGVVYITENKNKTVVIPCLGSISNLNVSLVARYPEKRFVPDGNRISWDSKKGFTIPSYMISYAGMVFCEAKINDESYQSIMYIVVVVGYRIYDVVLSPSHGIELSVGEKLVLNCTARTELNVGIDFNWEYPSSKHQHKKLVNRDLKTQSGTEMKKFLSTLTIDGVTRSDQGLYTCAASSGLMTKKNSTFVRVHEK[human IgG1 Fc with changes not spelt out]
On to B1, for which, in the test with Human VEGF-A protein [1], the “VEGF-A IC50 (nM); VEGF-A-induced NFAT-RE Luc2P KDR reporter cells” value (shortened to “VEGF-A IC50 (nM)”) amounted to 0.92 nM.

B2: PR1174(R1D2-R2D3-linker-R2D2(C162V/Y221S/R222K)-R2D3(N274F/S283T)-Fc) (Fc fusion)
chain: SDTGRPFVEMYSEIPEIIHMTEGRELVIPCRVTSPNITVTLKKFPLDTLIPDGKRIIWDSRKGFIISNATYKEIGLLTCEATVNGHLYKTNYLTHRQTNTIIDVVLSPSHGIELSVGEKLVLNCTARTELNVGIDFNWEYPSSKHQHKKLVNRDLKTQSGSEMKKFLSTLTIDGVTRSDQGLYTCAASSGLMTKKNSTFVRVHEKGGGGSSPFIASVSDQHGVVYITENKNKTVVIPCLGSISNLNVSLVARYPEKRFVPDGNRISWDSKKGFTIPSYMISYAGMVFCEAKINDESYQSIMYIVVVVGSKIYDVVLSPSHGIELSVGEKLVLNCTARTELNVGIDFNWEYPSSKHQHKKLVFRDLKTQSGTEMKKFLSTLTIDGVTRSDQGLYTCAASSGLMTKKNSTFVRVHEK[human IgG1 Fc with changes not spelt out]
On to B2, for which, in the test with Human VEGF-A protein [2], the “VEGF-A IC50 (nM)” value stood at 1.02 nM.

B3: Aflibercept (PR1076), R1D2-R2D3-Fc (Fc fusion)
chain: SDTGRPFVEMYSEIPEIIHMTEGRELVIPCRVTSPNITVTLKKFPLDTLIPDGKRIIWDSRKGFIISNATYKEIGLLTCEATVNGHLYKTNYLTHRQTNTIIDVVLSPSHGIELSVGEKLVLNCTARTELNVGIDFNWEYPSSKHQHKKLVNRDLKTQSGSEMKKFLSTLTIDGVTRSDQGLYTCAASSGLMTKKNSTFVRVHEK[human IgG1 Fc not spelt out]
For B3, the figures for the “VEGF-A IC50 (nM)” value with Human VEGF-A protein [3], in the test with Human VEGF-A protein [1] and in the test with Human VEGF-A protein [2] were 0.76 nM, 0.5 nM and 0.72 nM, respectively.

(Values after EP4768039A1, “PHARMACEUTICAL COMPOSITION AND USE THEREOF” (Shanghai Regenelead Therapies Co., Ltd., priority 2023, dated 2025).)
